# Source: the supplement of paper PMC12217912
# Some of the results follow. The full chains were built here from the parent and the listed change. Inactive controls read about 0.05.
# B1: TEV protease; numbered along this chain (parent)
# chain: MGESLFKGPRDYNPISSSICHLTNESDGHTTSLYGIGFGPFIITNKHLFRRNNGTLVVQSLHGVFKVKDTTTLQQHLVDGRDMIIIRMPKDFPPFPQKLKFREPQREERICLVTTNFQTKSMSSMVSDTSCTFPSGDGIFWKHWIQTKDGQCGSPLVSTRDGFIVGIHSASNFTNTNNYFTSVPKNFMELLTNQEAQQWVSGWRLNADSVLWGGHKVFMVKPEEPFQPVKEATQL
# Variants of: B1
# Assay: raw area under fraction-flipped curve 0-4 h after induction (AUC4h, not background-subtracted), DNA-recorder readout of cleavage of the substrate (dimensionless); higher = more cleavage of the substrate by the protease variant
# Conditions: temperature: 34 °C; time window: 0-4 h after rhamnose induction
# 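Also: Bxb1 expression induced with 0.2% (w/v) L-rhamnose at OD600 near 0.5, cultures sampled hourly, flipped fraction per protease–substrate barcode pair counted by paired-end Illumina sequencing.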
variant,measurement,value
N52I,area with substrate EFLYFQS,0.0778
same,area with substrate EILYFQS,0.0607
same,area with substrate ELLYFQS,0.0761
same,area with substrate EMLYFQS,0.0577
same,area with substrate ERLYFQS,0.0547
F226Y,area with substrate EALYFQS,0.126
same,area with substrate ECLYFQS,0.137
same,area with substrate EDLYFQS,0.146
same,area with substrate EELYFQS,0.129
same,area with substrate EFLYFQS,0.108
same,area with substrate EILYFQS,0.117
same,area with substrate EKLYFQS,0.127
same,area with substrate ELLYFQS,0.0813
same,area with substrate EMLYFQS,0.15
same,area with substrate EPLYFQS,0.158
same,area with substrate EQLYFQS,0.0529
same,area with substrate ERLYFQS,0.121
same,area with substrate ESLYFQS,0.108
same,area with substrate EWLYFQS,0.101
same,area with substrate EYLYFQS,0.0981
L191T,area with substrate EFLYFQS,0.076
same,area with substrate EGLYFQS,0.0785
same,area with substrate EILYFQS,0.074
same,area with substrate EKLYFQS,0.0796
same,area with substrate ELLYFQS,0.0612
same,area with substrate EMLYFQS,0.068
same,area with substrate EPLYFQS,0.0629
same,area with substrate EQLYFQS,0.0898
same,area with substrate ERLYFQS,0.0826
same,area with substrate ESLYFQS,0.054
same,area with substrate EVLYFQS,0.0892
K230G,area with substrate EALYFQS,0.0994
same,area with substrate ECLYFQS,0.11
same,area with substrate EDLYFQS,0.151
same,area with substrate EELYFQS,0.122
same,area with substrate EFLYFQS,0.132
same,area with substrate EGLYFQS,0.0519
same,area with substrate EHLYFQS,0.127
same,area with substrate EILYFQS,0.134
same,area with substrate EKLYFQS,0.105
same,area with substrate ELLYFQS,0.087
same,area with substrate EMLYFQS,0.112
same,area with substrate EQLYFQS,0.116
same,area with substrate ERLYFQS,0.0919
same,area with substrate ESLYFQS,0.114
same,area with substrate ETLYFQS,0.0882
same,area with substrate EVLYFQS,0.0888
same,area with substrate EWLYFQS,0.11
same,area with substrate EYLYFQS,0.0944
T233D,area with substrate EALYFQS,0.141
same,area with substrate ECLYFQS,0.127
same,area with substrate EDLYFQS,0.194
same,area with substrate EFLYFQS,0.094
same,area with substrate EMLYFQS,0.099
same,area with substrate EPLYFQS,0.136
same,area with substrate EQLYFQS,0.122
same,area with substrate ERLYFQS,0.0998
same,area with substrate ESLYFQS,0.114
T233S,area with substrate EALYFQS,0.115
same,area with substrate ECLYFQS,0.0963
same,area with substrate EDLYFQS,0.024
same,area with substrate EELYFQS,0.115
same,area with substrate EGLYFQS,0.111
same,area with substrate EHLYFQS,0.121
same,area with substrate EKLYFQS,0.131
same,area with substrate ELLYFQS,0.111
same,area with substrate EMLYFQS,0.101
same,area with substrate EPLYFQS,0.101
same,area with substrate EQLYFQS,0.124
same,area with substrate ESLYFQS,0.107
same,area with substrate EVLYFQS,0.0886
V200E,area with substrate ECLYFQS,0.0588
same,area with substrate EGLYFQS,0.061
same,area with substrate EILYFQS,0.0701
same,area with substrate ERLYFQS,0.0733
same,area with substrate ESLYFQS,0.075
same,area with substrate EVLYFQS,0.0803
P94D,area with substrate EILYFQS,0.106
same,area with substrate EMLYFQS,0.119
same,area with substrate EPLYFQS,0.0904
same,area with substrate EQLYFQS,0.124
same,area with substrate ERLYFQS,0.119
P222M,area with substrate EFLYFQS,0.0913
same,area with substrate EGLYFQS,0.0732
same,area with substrate EHLYFQS,0.0705
same,area with substrate EILYFQS,0.0896
same,area with substrate EKLYFQS,0.0965
same,area with substrate ELLYFQS,0.0866
same,area with substrate EMLYFQS,0.113
same,area with substrate EPLYFQS,0.0902
same,area with substrate ESLYFQS,0.104
same,area with substrate EWLYFQS,0.0999
P222G,area with substrate EALYFQS,0.106
same,area with substrate ECLYFQS,0.0922
same,area with substrate EDLYFQS,0.131
same,area with substrate EGLYFQS,0.0705
same,area with substrate EHLYFQS,0.119
same,area with substrate EILYFQS,0.0484
same,area with substrate EKLYFQS,0.12
same,area with substrate ELLYFQS,0.0923
same,area with substrate EMLYFQS,0.112
same,area with substrate EPLYFQS,0.123
same,area with substrate EQLYFQS,0.106
same,area with substrate ERLYFQS,0.0864
same,area with substrate ESLYFQS,0.095
same,area with substrate EVLYFQS,0.0874
same,area with substrate EYLYFQS,0.0921
P222V,area with substrate EALYFQS,0.097
same,area with substrate ECLYFQS,0.0897
same,area with substrate EDLYFQS,0.129
same,area with substrate EELYFQS,0.108
same,area with substrate EHLYFQS,0.0703
same,area with substrate EILYFQS,0.0857
same,area with substrate EKLYFQS,0.0982
same,area with substrate ELLYFQS,0.0858
same,area with substrate EMLYFQS,0.0927
same,area with substrate EPLYFQS,0.0915
same,area with substrate EQLYFQS,0.138
same,area with substrate ERLYFQS,0.0906
same,area with substrate ESLYFQS,0.0949
same,area with substrate ETLYFQS,0.0991
same,area with substrate EVLYFQS,0.0865
same,area with substrate EWLYFQS,0.0821
same,area with substrate EYLYFQS,0.0869
E231G,area with substrate EALYFQS,0.112
same,area with substrate ECLYFQS,0.109
same,area with substrate EDLYFQS,0.117
same,area with substrate EELYFQS,0.121
same,area with substrate EFLYFQS,0.109
same,area with substrate EHLYFQS,0.107
same,area with substrate EILYFQS,0.107
same,area with substrate EKLYFQS,0.109
same,area with substrate ELLYFQS,0.0839
same,area with substrate EPLYFQS,0.114
same,area with substrate EQLYFQS,0.114
same,area with substrate ERLYFQS,0.12
same,area with substrate ESLYFQS,0.125
same,area with substrate EVLYFQS,0.0751
same,area with substrate EWLYFQS,0.0919
E231M,area with substrate EALYFQS,0.0939
same,area with substrate ECLYFQS,0.0612
same,area with substrate EELYFQS,0.116
same,area with substrate EFLYFQS,0.148
same,area with substrate EGLYFQS,0.096
same,area with substrate EILYFQS,0.0752
same,area with substrate EKLYFQS,0.0981
same,area with substrate EMLYFQS,0.0954
same,area with substrate EPLYFQS,0.125
same,area with substrate EQLYFQS,0.107
same,area with substrate ERLYFQS,0.0926
same,area with substrate EVLYFQS,0.0862
same,area with substrate EYLYFQS,0.0789
K216L,area with substrate ECLYFQS,0.0932
same,area with substrate EDLYFQS,0.0618
same,area with substrate ELLYFQS,0.0939
same,area with substrate ERLYFQS,0.0832
same,area with substrate ESLYFQS,0.0993
same,area with substrate EWLYFQS,0.0804
S182W,area with substrate EHLYFQS,0.0487
same,area with substrate EKLYFQS,0.0664
same,area with substrate ELLYFQS,0.0625
same,area with substrate EQLYFQS,0.0479
same,area with substrate ERLYFQS,0.0583
same,area with substrate ESLYFQS,0.0627
same,area with substrate ETLYFQS,0.0423
same,area with substrate EWLYFQS,0.038
same,area with substrate EYLYFQS,0.052
